# Measured values reported in the supplement of paper PMC12217912.
# The other results are listed elsewhere or left out. Sequences were assembled here from the parent chain. Values near 0.05 are background.
# B1: TEV protease; numbered along this chain (parent)
# chain: MGESLFKGPRDYNPISSSICHLTNESDGHTTSLYGIGFGPFIITNKHLFRRNNGTLVVQSLHGVFKVKDTTTLQQHLVDGRDMIIIRMPKDFPPFPQKLKFREPQREERICLVTTNFQTKSMSSMVSDTSCTFPSGDGIFWKHWIQTKDGQCGSPLVSTRDGFIVGIHSASNFTNTNNYFTSVPKNFMELLTNQEAQQWVSGWRLNADSVLWGGHKVFMVKPEEPFQPVKEATQL
# Variants of: B1
# Test: raw area under fraction-flipped curve 0-4 h after induction (AUC4h, not background-subtracted), DNA-recorder readout of cleavage of the substrate (dimensionless); higher = more cleavage of the substrate by the protease variant
# Conditions: temperature: 34 °C; time window: 0-4 h after rhamnose induction
# Experimental: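 In vivo DNA recorder in E. coli TOP10(DE3) ΔrhaA at 34 °C. Each TEVp single-site mutant (parent TEVp 0) is paired with a single-site variant of the 7-mer TEVs (canonical ENLYFQ|S). The substrate sits between flexible linkers in a Bxb1-sfGFP-TEVs-SsrA fusion, so cleavage stabilises Bxb1 and speeds flipping of a recombination array, read by NGS. The value is the raw area under the fraction-flipped curve over 0-4 h after rhamnose induction (AUC4h), with ≥20 reads per time point. It is not background-subtracted; inactive controls average about 0.047.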
# 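Note: Bxb1 expression induced with 0.2% (w/v) L-rhamnose at OD600 near 0.5, cultures sampled hourly, flipped fraction per protease–substrate barcode pair counted by paired-end Illumina sequencing.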
Variant,area with substrate DNLYFQS,area with substrate FNLYFQS,area with substrate GNLYFQS,area with substrate HNLYFQS,area with substrate INLYFQS,area with substrate MNLYFQS,area with substrate NNLYFQS,area with substrate PNLYFQS,area with substrate TNLYFQS,area with substrate VNLYFQS,area with substrate WNLYFQS,area with substrate YNLYFQS,area with substrate KNLYFQS,area with substrate LNLYFQS,area with substrate SNLYFQS,area with substrate QNLYFQS,area with substrate RNLYFQS
MGESLFKGPRDYNPISSSICHLTNESDGHTTSLYGIGFGPFIITNKHLFRRNNGTLVVQSLHGVFKVKDTTTLQQHLVDGRDMIIIRMPKDFPPFPQKLKFREPQREERICLVTTNFQTKSMSSMVSDTSCTFPSGDGIFVKHWIQTKDGQCGSPLVSTRDGFIVGIHSASNFTNTNNYFTSVPKNFMELLTNQEAQQWVSGWRLNADSVLWGGHKVFMVKPEEPFQPVKEATQL [W141V],0.0408,0.0501,0.0496,0.0481,0.0403,0.0795,0.0462,0.0594,0.0639,0.0309,0.0561,0.0282,–,–,–,–,–
MGESLFKGPRDYNPISSSICHLTNESDGHTTSLYGIGFGPFIITNKHLFRRNNGTLVVQSLHGVFKVKDTTTLQQHLVDGRDMIIIRMPKDFPPFPQKLKFREPQREERICLVTTNFQTKSMSSMVSDTSCTFPSGDGIFTKHWIQTKDGQCGSPLVSTRDGFIVGIHSASNFTNTNNYFTSVPKNFMELLTNQEAQQWVSGWRLNADSVLWGGHKVFMVKPEEPFQPVKEATQL [W141T],0.0217,0.0564,0.0504,–,0.0604,0.0575,0.034,0.0537,0.046,–,0.0433,–,0.0582,0.0639,–,–,–
MGESLFKGPRDYNPISSSICHLTNESDGHTTSLYGIGFGPFIITNKHLFRRNNGTLVVQSLHGVFKVKDTTTLQQHLVDGRDMIIIRMPKDFPPFPQKLKFREPQREERICLVTTNFQTKSMSSMVSDTSCTFPSGDGIFWKHWIQTYDGQCGSPLVSTRDGFIVGIHSASNFTNTNNYFTSVPKNFMELLTNQEAQQWVSGWRLNADSVLWGGHKVFMVKPEEPFQPVKEATQL [K148Y],0.0833,–,–,0.0742,–,0.0622,–,–,0.0689,–,0.0621,0.0641,–,0.0604,0.075,–,–
MGESLFKGPRDYNPISSSICHLTNESDGHTTSLYGIGFGPFIITNKHLFRRNNGTLVVQSLHGVFKVKDTTTLQQHLVDGRDMIIIRMPKDFPPFPQKLKFREPQREERICLVTTNFQTKSMSSMVSDTSCTFPSGDGIFWKHWIQTKDGQCGSPLYSTRDGFIVGIHSASNFTNTNNYFTSVPKNFMELLTNQEAQQWVSGWRLNADSVLWGGHKVFMVKPEEPFQPVKEATQL [V157Y],0.0706,0.0651,0.058,0.0134,0.0503,0.0629,–,–,0.0605,0.0752,0.0423,0.0511,0.0596,0.0688,0.0414,0.0562,–
MGESLFKGPRDYNPISSSICHLTNESDGHTTSLYGIGFGPFIITNKHLFRRNNGTLVVQSLHGVFKVKDTTTLQQHLVDGRDMIIIRMPKDFPPFPQKLKFREPQREERICLVTTNFQTKSMSSMVSDTSCTFPSGDGIFWKHWIQTKDGQCGSPLMSTRDGFIVGIHSASNFTNTNNYFTSVPKNFMELLTNQEAQQWVSGWRLNADSVLWGGHKVFMVKPEEPFQPVKEATQL [V157M],0.0774,0.083,0.0633,0.0614,0.0634,0.0661,–,0.0622,0.0584,0.0486,0.0602,0.0487,–,–,0.0671,–,–
MGESLFKGPRDYNPISSSICHLTNESDGHTTSLYGIGFGPFIITNKHLFRRNNGTLVVQSLHGVFKVKDTTTLQQHLVDGRDMIIIRMPKDFPPFPQKLKFREPQREERICLVTTNFQTKSMSSMVSDTSCTFPSGDGIDWKHWIQTKDGQCGSPLVSTRDGFIVGIHSASNFTNTNNYFTSVPKNFMELLTNQEAQQWVSGWRLNADSVLWGGHKVFMVKPEEPFQPVKEATQL [F140D],0.0822,0.0604,–,0.0614,–,0.0725,–,–,0.0463,0.0702,0.0602,0.0721,–,0.0652,0.0537,–,–
MGESLFKGPRDYNPISSSICHLTNESDGHTTSLYGIGFGPFIITNKHLFRRNNGTLVVQSLHGVFKVKDTTTLQQHLVDGRDMIIIRMPKDFPPFPQKLKFREPQREERICLVTTNFQTKSMSSMVSDTSCTFPSGDGIFWKHWIQTKDGQCGSRLVSTRDGFIVGIHSASNFTNTNNYFTSVPKNFMELLTNQEAQQWVSGWRLNADSVLWGGHKVFMVKPEEPFQPVKEATQL [P155R],0.0517,0.0469,0.0523,0.054,0.0501,0.0582,–,–,0.0455,0.0558,0.0575,0.0381,–,0.0539,0.0443,–,0.0661
MGESLFKGPRDYNPISSSICHLTNESDGHTTSLYGIGFGPFIITNKHLFRRNNGTLVVQSLHGVFKVKDTTTLQQHLVDGRDMIIIRMPKDFPPFPQKLKFREPQREERICLVTTNFQTKSMSSMVSDTSCTFPSGDGHFWKHWIQTKDGQCGSPLVSTRDGFIVGIHSASNFTNTNNYFTSVPKNFMELLTNQEAQQWVSGWRLNADSVLWGGHKVFMVKPEEPFQPVKEATQL [I139H],0.0573,–,–,0.0616,–,–,–,–,0.0601,–,–,–,–,–,–,–,–
MGESLFKGPRDYNPISSSICHLTNESDGHTTSLYGIGFGPFIITNKHLFRRNNGTLVVQSLHGVFKVKDTTTLQQHLVDGRDMIIIRMPKDFPPFPQKLKFREPQREERICLVTTNFQTKSMSSMVSDTSCTFPSGDGLFWKHWIQTKDGQCGSPLVSTRDGFIVGIHSASNFTNTNNYFTSVPKNFMELLTNQEAQQWVSGWRLNADSVLWGGHKVFMVKPEEPFQPVKEATQL [I139L],0.0752,0.0633,0.0671,0.0694,–,0.056,–,0.0562,–,0.0842,–,0.0472,0.0701,0.0675,0.073,–,–
MGESLFKGPRDYNPISSSICHLTNESDGHTTSLYGIGFGPFIITNKHLFRRNNGTLVVQSLHGVFKVKDTTTLQQHLVDGRDMIIIRMPKDFPPFPQKLKFREPQREERICLVTTNFQTKSMSSMVSDTSCTFPSGDGEFWKHWIQTKDGQCGSPLVSTRDGFIVGIHSASNFTNTNNYFTSVPKNFMELLTNQEAQQWVSGWRLNADSVLWGGHKVFMVKPEEPFQPVKEATQL [I139E],0.083,0.0554,0.0953,0.0568,–,–,0.0629,–,0.0705,–,–,0.0586,0.0586,–,0.0587,–,0.0551
